This is an account of results in article PMC6212790.

The list shows a part of the results. At the low end of the ranking the order means little.

The target of this test is T1, GST-Rok (full length) (UniProt O34857).
T1 sequence: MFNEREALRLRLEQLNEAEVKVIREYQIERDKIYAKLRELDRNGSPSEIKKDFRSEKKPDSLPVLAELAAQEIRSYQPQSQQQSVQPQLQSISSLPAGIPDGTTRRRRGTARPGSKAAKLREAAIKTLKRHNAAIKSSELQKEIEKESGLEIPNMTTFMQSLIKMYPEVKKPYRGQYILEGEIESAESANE
The test can be described thus: protein binding microarray.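 Note: rank score from −0.5 (least bound) to 0.5 (best bound).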 To be noted: Rok is a gene silencer of Bacillus subtilis; high values mean tight binding; most listed sequences are background and not binding sites; double strand, one strand shown.
For the sequence GCGGGTCC, the binding signal was -0.0666 E-score. Next, ATTGAGAC: -0.0929 E-score.

AGTTTTTC gave a binding signal of 0.0143 E-score. Next, CTTATCTA: 0.229 E-score; ACTACTTG: 0.192 E-score; CCTTGAAC: -0.296 E-score. Consider GGAGCTGA, for which the binding signal is -0.309 E-score. With AGCAAACC the figure was 0.0585 E-score; with ACAGGGTC, -0.24 E-score; with GCGGCTGA, -0.213 E-score.

With GACTATCC, the binding signal was -0.0656 E-score.

Regarding CGGGGGCC, the binding signal is -0.422 E-score.

In turn, ACGTGTTC registered a binding signal of -0.18 E-score.

The sequence CTTTCATC displayed a binding signal of -0.031 E-score. With GACCCGTA the figure was -0.256 E-score; with ATTGTGCA, 0.108 E-score. Take CATTAGCC: the binding signal is -0.265 E-score.

Regarding CCTTCACG, the binding signal is -0.126 E-score.

As to CCAATCAG, the binding signal is 0.0268 E-score. Next, AGGCCGAA: -0.136 E-score. Next, GCGTTAAC: 0.0258 E-score; CGAGGCCG: -0.392 E-score; GCACGTGC: -0.141 E-score. In turn, CGGTCTGC registered a binding signal of -0.131 E-score. Next, CATTGGTA: 0.223 E-score; CCTCGTCG: -0.205 E-score; ATGGATTC: 0.0719 E-score.

GGCTTACC registered a binding signal of -0.233 E-score. As for ACCTTCAC, the binding signal was -0.0752 E-score. For ATATATTC, the binding signal stood at 0.34 E-score.

CAGATTGC: the binding signal was -0.179 E-score. With ACCTGAAC the figure was -0.0846 E-score; with GTCAGAGA, -0.298 E-score; with ACCGCCAA, -0.241 E-score.

TGTCCACA yielded a binding signal of 0.00731 E-score. With CCTATGAA the figure was -0.0665 E-score; with GTGGACTA, 0.133 E-score.

With GCAACTAC, the binding signal is 0.308 E-score. Regarding ACGCTAGA, the binding signal was found to be 0.14 E-score. Next, TTACCGAA: 0.237 E-score; TGATGACA: 0.0582 E-score; GATTTAGA: -0.0821 E-score. In turn, TCCTACAA returned a binding signal of 0.0302 E-score.

Regarding CTACTAAC, the binding signal stood at 0.324 E-score. CTACAATA yielded a binding signal of 0.291 E-score. With TAAAGGGA the figure was -0.0821 E-score; with GGTTTCAA, -0.0891 E-score. With CCCTCGAC the figure was -0.306 E-score; with AATAACTC, 0.0992 E-score. Next, ACTCGTAC: 0.0428 E-score; CCCCGCAG: -0.342 E-score. Regarding AACCAGTT, the binding signal was -0.0802 E-score. Regarding CAGGTAGA, the binding signal was 0.221 E-score. With ATTGTACA the figure was 0.369 E-score; with AGTGGTTA, 0.134 E-score.

GGCCATAC: the binding signal is -0.0505 E-score. On to AGATCTCG, for which the binding signal was -0.134 E-score. Next, CGATAACA: 0.116 E-score. Take AGAGGCGG: the binding signal is -0.231 E-score.

Take GCGAATTA: the binding signal amounted to 0.266 E-score. With CAGGTGTC the figure was -0.0418 E-score; with CTCGCGTA, 0.0298 E-score. Next, ACCAGATA: 0.209 E-score; ATGGTACC: 0.231 E-score. For CGAGGTTC, the binding signal was -0.173 E-score. Next, ATAGAGGC: -0.0438 E-score; CAGTATTA: 0.243 E-score. Next, ATAATTCG: 0.302 E-score; CAGTCAGC: 0.00195 E-score; CCCGCAAG: -0.316 E-score. Next, ATAACCGG: -0.0829 E-score; CATTTGAC: 0.0433 E-score; GCAGCGCA: 0.00939 E-score. Sequence ATTATCGC came in with a binding signal of 0.0259 E-score.

For the sequence CGCACTCC, the binding signal was -0.295 E-score. With ACGGCGGA, the binding signal was -0.404 E-score.

CGGAGCCA: the binding signal is -0.128 E-score. In turn, GACAGGCA showed a binding signal of -0.157 E-score.

The sequence CCGCTATC displayed a binding signal of -0.227 E-score. Sequence CCTATTGC displayed a binding signal of -0.228 E-score. Next, ACGTATTG: 0.242 E-score; TATGCCAA: -0.0504 E-score; ATCATTAA: 0.236 E-score.

As to AGCTGGGA, the binding signal is -0.1 E-score. With CATACTTA the figure was 0.175 E-score. With AATGATTA the figure was 0.164 E-score. The sequence CCAGTCCC displayed a binding signal of -0.277 E-score. Regarding CGCGTGAC, the binding signal was -0.118 E-score. As to AACTATGG, the binding signal was found to be 0.0596 E-score. ACCCTACC registered a binding signal of -0.111 E-score.

ACTTACTA showed a binding signal of 0.306 E-score. Next, ATCCGGCA: -0.0551 E-score; ATCTACGG: 0.158 E-score; CGAGCGAC: -0.0942 E-score. The sequence CTTCTATC showed a binding signal of 0.265 E-score. Next, GCTTTCAA: -0.14 E-score; CTAACCTA: 0.186 E-score; AACAGAGG: 0.0276 E-score. GCACACGC came in with a binding signal of -0.16 E-score. Turning to CGGAGCCG, the binding signal was -0.191 E-score. Consider GAGCACCA, for which the binding signal is -0.18 E-score.

Consider AAACCTAG, for which the binding signal came to 0.24 E-score. Next, ACACGCGC: -0.0459 E-score; CTCAACCA: -0.0207 E-score; TAATTCAA: 0.105 E-score. The sequence ATGACCCA showed a binding signal of -0.145 E-score. With GACCGACC the figure was -0.328 E-score. Consider AAAAGATC, for which the binding signal amounted to 0.168 E-score. Sequence ATTACGTC showed a binding signal of 0.261 E-score. For AAATCGTG, the binding signal was 0.0562 E-score.

ACAAGATA gave a binding signal of 0.326 E-score. Next, CCGATCGA: -0.0744 E-score; GTGATCGA: -0.135 E-score. In turn, ACCCTAAC showed a binding signal of -0.292 E-score. With TGTACGAA the figure was 0.188 E-score. With CGTTTTAC the figure was 0.0746 E-score. With ATGGCCGA the figure was -0.0575 E-score; with AACCTGCC, -0.267 E-score. As to AGGCAATA, the binding signal worked out at 0.0511 E-score.

CTCGACAG showed a binding signal of -0.185 E-score. AAGCACAA: the binding signal was determined as 0.0437 E-score. Sequence CCAACGCG came in with a binding signal of -0.327 E-score. Sequence TATACAAA came in with a binding signal of 0.402 E-score. In the case of CATTTAGG, the binding signal amounted to 0.0168 E-score. With AACGCCCA the figure was -0.335 E-score; with AATCCATC, 0.0541 E-score; with AGGATAAC, 0.0151 E-score. With GCTATTCC the figure was -0.0831 E-score; with CATACTAG, 0.312 E-score.

GCGTTCGA showed a binding signal of -0.105 E-score.

AGTCCCCG returned a binding signal of -0.269 E-score. Next, ACCACTTG: 0.176 E-score; CGTTTCGC: -0.192 E-score. CCGTTACC gave a binding signal of -0.0167 E-score. With AGGTGACG the figure was -0.249 E-score; with CAGACCTC, -0.198 E-score; with GGCACGAA, -0.18 E-score. As to AGTACCAC, the binding signal was 0.0156 E-score.

The sequence GTACCGCA registered a binding signal of 0.033 E-score. Regarding GAGAAGAA, the binding signal was found to be 0.0707 E-score. Next, AGCTGCAT: -0.0862 E-score; CACCAATC: -0.000217 E-score; AAAACCCG: -0.0675 E-score.

GATATCAA had a binding signal of 0.208 E-score.

GTAGCTAA gave a binding signal of 0.373 E-score.

Sequence ACGCTGAT yielded a binding signal of -0.0822 E-score. With AAACTACG the figure was 0.377 E-score. Next, CCCACTCG: -0.0767 E-score; ATATGCCG: 0.0462 E-score; AGGTGCAC: -0.291 E-score. With CTGCTGAA the figure was 0.0969 E-score; with GTAGGCAA, 0.0616 E-score. AGGCGACC had a binding signal of -0.228 E-score.

AGCACTCG had a binding signal of -0.11 E-score. For ACCAAACA, the binding signal amounted to 0.0769 E-score.

GGTAGGGA gave a binding signal of -0.0759 E-score. In the case of TGAAGTAA, the binding signal turned out to be 0.137 E-score. Next, CTGGTGCC: -0.123 E-score; CGAGCAAC: -0.122 E-score. Regarding GCCGTGTA, the binding signal is 0.00757 E-score. With ACCATAGA the figure was -0.0234 E-score. Next, ACGCATAA: 0.0979 E-score.

For AACGCGCT, the binding signal worked out at 0.0978 E-score. With CCGGGCTA the figure was -0.243 E-score.

Take AATTCTTA: the binding signal stood at 0.218 E-score. With TGTCGACA the figure was -0.0439 E-score; with CAACGTGG, 0.0206 E-score; with ATAGAGCC, -0.0243 E-score. Next, GGATCTTA: 0.0165 E-score; AAAATGCG: 0.0533 E-score. Next, CCTTGCGC: -0.116 E-score. Sequence CCTGACAG had a binding signal of -0.133 E-score.

ACATAAGG showed a binding signal of 0.0132 E-score. With CATGACCA the figure was -0.0647 E-score; with AATAGCTG, 0.206 E-score; with GGACTATA, 0.0812 E-score.

For the sequence AGTCGCGG, the binding signal is -0.173 E-score. Next, AGGGAGAA: -0.29 E-score; CGAAATAC: 0.163 E-score. The sequence ACTCGCTG came in with a binding signal of -0.189 E-score. As to AGCCTCAC, the binding signal was -0.223 E-score. The sequence GGTAATCA showed a binding signal of 0.0323 E-score.

In turn, CAGGGTAC returned a binding signal of -0.0982 E-score. For ACGGGACC, the binding signal was -0.279 E-score. Sequence AAAGCTCA had a binding signal of 0.0744 E-score. With AGTACATA the figure was 0.324 E-score; with GAACCCCA, -0.209 E-score; with ATAAGCGA, -0.133 E-score. ATGCCAAG returned a binding signal of -0.0817 E-score. Consider TCGAACCA, for which the binding signal was determined as 0.0879 E-score. Take GGGGATGA: the binding signal was -0.331 E-score. With AACTCATG the figure was 0.132 E-score. With ATCTTTTC the figure was 0.0687 E-score; with CAGAGGTA, 0.149 E-score; with ACGTGCAT, 0.064 E-score. The sequence ATAAGTGG had a binding signal of 0.173 E-score. With CGTGATAA the figure was 0.124 E-score; with AGAGCTTC, -0.213 E-score. Sequence CCGCCCAC showed a binding signal of -0.267 E-score. With CCGCCGGC the figure was -0.436 E-score; with AAGGCGCC, -0.34 E-score; with CCGTAGAA, 0.32 E-score. With ACTTCAAT the figure was 0.162 E-score. With AGCGCATA the figure was 0.222 E-score; with CACGTTAA, 0.0985 E-score; with AAAGGGAA, -0.166 E-score. The sequence TTCAGCAA gave a binding signal of 0.0648 E-score.

The sequence CAAGCTGC gave a binding signal of -0.178 E-score. Consider GGGGCCCA, for which the binding signal is -0.342 E-score.

For the sequence CGTGCTTC, the binding signal amounted to 0.0956 E-score.

Consider CCCGGGTC, for which the binding signal was -0.306 E-score. With ACTCATAG the figure was -0.0449 E-score; with ATAGGTTA, 0.212 E-score; with AACTAAAC, 0.138 E-score. With ATCTAGAG the figure was -0.0608 E-score.

The sequence GCACGTAA had a binding signal of 0.0424 E-score. Take GAACCTTA: the binding signal was -0.0441 E-score.

As to GAGATCGA, the binding signal turned out to be 0.087 E-score. For the sequence GAAGATCC, the binding signal is -0.296 E-score.
